Where two headings read alike, the source gives them in different places.
Legend:
[1] = system: methicillin-resistant Staphylococcus aureus (MRSA) strain BAA-1707; assay: Mouse model of Staphylococcus aureus systemic infection (peritonitis model); type: in vivo
Protocol: Survival was monitored for 72 h post-infection. […] The effective dose 50 (ED50) was defined as the test-compound dose resulting in 50% survival at 72 h (calculated using the probit method).

[2] = system: methicillin-resistant Staphylococcus aureus (MRSA) strain BAA-1707; assay: Mouse model of Staphylococcus aureus lung infection (neutropenic pneumonia model); conditions: neutropenic mice, lung burden at 24 h
[3] = mice, intravenous single dose 0 h post-infection, 50% survival at 72 h, read-out: in vivo antibacterial activity mouse MRSA peritonitis ED50

SMILES | ED50 [1, 3] [mg/kg] | other results
COC(=O)N/C=C/CCC(C)c1cc(O)c(C(=O)/C(C)=C/c2sc(Oc3ccc(F)cc3)nc2C)c(=O)o1 (centres unmarked) [Example 1] | 20 | 
COC(=O)N/C=C/CCC(C)c1cc(O)c(C(=O)/C(C)=C/c2cnc(Oc3ccc(F)cc3)s2)c(=O)o1 (centres unmarked) [Example 2] | 25 | 
COC(=O)N/C=C/CCCc1cc(O)c(C(=O)/C(C)=C/c2sc(Oc3ccc(F)cc3)nc2C)c(=O)o1 [Example 3] | 11 | 
[2H]C([2H])([2H])OC(=O)N/C=C/CCC(C)c1cc(O)c(C(=O)/C(C)=C/c2cnc(Oc3ccc(F)cc3)s2)c(=O)o1 (centres unmarked) [Example 5] | 15 | 
COC(=O)N/C=C/CCCc1cc(O)c(C(=O)/C(C)=C/c2cnc(Oc3ccc(F)cc3)s2)c(=O)o1 [Example 6] | 15 | 
[2H]C([2H])([2H])OC(=O)N/C=C/CCCc1cc(O)c(C(=O)/C(C)=C/c2sc(Oc3ccc(F)cc3)nc2C)c(=O)o1 [Example 7] | 10 | 
[2H]C([2H])([2H])OC(=O)N/C=C/CCCc1cc(O)c(C(=O)/C(C)=C/c2cnc(Oc3ccc(F)cc3)s2)c(=O)o1 [Example 8] | 13 | 
[2H]C([2H])([2H])OC(=O)N/C=C/CCCc1cc([O-])c(C(=O)/C(C)=C/c2cnc(Oc3ccc(F)cc3)s2)c(=O)o1.[Na+] [Example 9] |  | in vivo antibacterial activity: mouse MRSA pneumonia ED(2 log) ([2]; intravenous single dose 1 h post-infection): 25 mg/kg; in vivo antibacterial activity: mouse MRSA pneumonia ED(2 log) ([2]; oral single dose 1 h post-infection): 100 mg/kg; ED50 ([1]; iv, read-out: in vivo antibacterial activity mouse MRSA peritonitis ED50): 10 mg/kg; ED50 ([1]; po, read-out: in vivo antibacterial activity: mouse MRSA peritonitis ED50): 10 mg/kg
